The list shows a part of the results. Antibody binding of pooled human sera (four to six donors per pool; dilution not stated) to peptides of the Trypanosoma cruzi antigen TSSA on microarrays. Quantile-normalised fluorescence in arbitrary units, mean of duplicate arrays; higher = more binding. No active / inactive call. The uninfected pools are read here as the healthy donors of the same country. The strongest signals lie near the top of the scale (about 60,000).
System: pooled sera of chronic Chagas disease patients, Argentina
Experiment: antibody binding signal (normalised fluorescence) (arbitrary fluorescence units); higher = stronger serum antibody binding to peptide
Procedure: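 Microarray of 15-residue peptides over residues 30-55 of Trypanosoma cruzi TSSAII, each with 1 to 10 substitutions at naturally variable positions, probed with one serum pool per country.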

| Sequence | antibody binding signal |
| --- | --- |
| ENKTATGEAPSQSGA | 14400 |
| TSSTPPSGTENKTAA | 52400 |
| GKENKAATGGAPSPP | 9790 |
| SGKENKAATGGTPSQ | 3260 |
| DNKPATGEAPSPSGA | 44400 |
| TDKKPATGGTPSQPG | 929 |
| TPPSGKDKKPAAGET | 16800 |
| GKDNKAAAGGTPSPP | 345 |
| TISTPPSGTENKPAA | 48400 |
| TDNKAAAGEAPSQPG | 6510 |
| GTDNKPAAGGTPSPP | 2050 |
| KDNKTAAGGAPSQPG | 516 |
| EKKTATGETPSPPGA | 458 |
| EKKPATGGAPSQSGA | 1780 |
| KPAAGETPSPPGASS | 325 |
| KPAAGGTPSQPGASS | 166 |
| SGKDNKPATGGAPSQ | 1940 |
| GKDNKPATGGTPSQS | 736 |
| STPPSGTDKKPATGG | 43000 |
| SGTDKKTAAGGTPSQ | 1450 |

| Sequence | antibody binding signal |
| --- | --- |
| GTENKAAAGEAPSQS | 35700 |
| GKDNKTATGGAPSPP | 764 |
| NKAATGGTPSQSGAS | 557 |
| GTDNKPAAGEAPSQS | 3910 |
| SGKEKKPATGEAPSP | 46400 |
| ENKPATGGTPSQSGA | 893 |
| TDNKPAAGEAPSQSG | 2460 |
| TPPSGTDKKPAAGGA | 37300 |
| SGTEKKPAAGGAPSP | 3130 |
| KTAAGGAPSQSGASS | 199 |
| SGKDKKTATGGTPSP | 688 |
| KPATGEAPSPSGASS | 47900 |
| ISTPPSGTEKKPATG | 43900 |
| GTDNKAATGEAPSPP | 27300 |
| KDNKTATGGAPSQSG | 413 |
| GTDNKTATGGTPSPP | 340 |
| GTEKKPAAGEAPSQS | 3210 |
| PSGKDKKPATGEAPS | 45200 |
| STPPSGKENKTAAGE | 39400 |
| ENKAAAGGTPSPSGA | 427 |

From the supplement of paper PMC10441789
